# Reference: the supplement of paper PMC8728848
# The other results are listed elsewhere or left out.
# B1: SSR1 (Sclerotium rolfsii), A0A0M3KL30 (protein)
# chain: TYKITVRVYQTNPDAFFHPVEKTVWKYANGGTWTITDDQHVLTMGGSGTSGTLRFHADNGESFTATFGVHNYKRWCDIVTNLAADETGMVINQQYYSQKNREEARERQLSNYQVKNAKGRNFQIVYTEAEGNDLHANLIIG
# Tests used:
# Assay in all cases: glycan array binding signal (z-score within array); higher = stronger binding
# Conditions in all cases: glycan notation: IUPAC condensed, linker removed
# [1] = biological target: Neu5Ac(a2-3)Gal(b1-4)[Fuc(a1-3)]GlcNAc6S
# How it was run: (§1)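 Glycan array data came from 3228 arrays in the Consortium for Functional Glycomics database, and only arrays with an available protein sequence were kept. Glycan names were put into IUPAC-condensed notation, and columns mapping to the same glycan were averaged. The binding signal is a within-array Z-score, averaged across arrays of one protein sequence run at different concentrations or buffers and across linkers. A negative Z-score can be read as non-binding.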
# [2] = biological target: Neu5Ac(a2-3)Gal6S(b1-4)GlcNAc
# How it was run: as §1
# [3] = biological target: Neu5Ac(a2-3)Gal6S(b1-4)[Fuc(a1-3)]GlcNAc
# How it was run: as §1
# Neu5Ac(a2-3)GalNAc = biological target: Neu5Ac(a2-3)GalNAc
# How it was run: as §1
# [4] = biological target: Neu5Ac(a2-3)GalNAc(b1-4)GlcNAc
# How it was run: as §1
# [5] = biological target: Neu5Ac(a2-3)[GalNAc(b1-4)]Gal(b1-4)Glc
# How it was run: as §1
# [6] = biological target: Neu5Ac(a2-3)[GalNAc(b1-4)]Gal(b1-4)GlcNAc
# How it was run: as §1
# [7] = biological target: Neu5Ac(a2-3)[GalNAc(b1-4)]Gal(b1-4)GlcNAc(b1-3)GalNAc
# How it was run: as §1
# [8] = biological target: Neu5Ac(a2-3)[Neu5Ac(a2-6)]GalNAc
# How it was run: as §1
# Neu5Ac(a2-6)Gal = biological target: Neu5Ac(a2-6)Gal
# How it was run: as §1
# [9] = biological target: Neu5Ac(a2-6)Gal(b1-3)GlcNAc(b1-3)[Gal(b1-4)GlcNAc(b1-6)]Gal(b1-4)Glc
# How it was run: as §1
# Neu5Ac(a2-6)Gal(b1-4)Glc = biological target: Neu5Ac(a2-6)Gal(b1-4)Glc
# How it was run: as §1
# [10] = biological target: Neu5Ac(a2-6)Gal(b1-4)GlcNAc
# How it was run: as §1
# [11] = biological target: Neu5Ac(a2-6)Gal(b1-4)GlcNAc(b1-2)Man
# How it was run: as §1
# [12] = biological target: Neu5Ac(a2-6)Gal(b1-4)GlcNAc(b1-2)Man(a1-3)Man(b1-4)GlcNAc(b1-4)GlcNAc
# How it was run: as §1
# [13] = biological target: Neu5Ac(a2-6)Gal(b1-4)GlcNAc(b1-2)Man(a1-3)[Gal(b1-4)GlcNAc(b1-2)Man(a1-6)]Man(b1-4)GlcNAc(b1-4)GlcNAc
# How it was run: as §1
# [14] = biological target: Neu5Ac(a2-6)Gal(b1-4)GlcNAc(b1-2)Man(a1-3)[GlcNAc(b1-2)Man(a1-6)]Man(b1-4)GlcNAc(b1-4)GlcNAc
# How it was run: as §1
# [15] = biological target: Neu5Ac(a2-6)Gal(b1-4)GlcNAc(b1-2)Man(a1-3)[GlcNAc(b1-4)][Neu5Ac(a2-6)Gal(b1-4)GlcNAc(b1-2)Man(a1-6)]Man(b1-4)GlcNAc(b1-4)GlcNAc
# How it was run: as §1
# [16] = biological target: Neu5Ac(a2-6)Gal(b1-4)GlcNAc(b1-2)Man(a1-3)[Man(a1-6)]Man(b1-4)GlcNAc(b1-4)GlcNAc
# How it was run: as §1
# [17] = biological target: Neu5Ac(a2-6)Gal(b1-4)GlcNAc(b1-2)Man(a1-3)[Neu5Ac(a2-3)Gal(b1-4)GlcNAc(b1-2)Man(a1-6)]Man(b1-4)GlcNAc(b1-4)GlcNAc
# How it was run: as §1
# [18] = biological target: Neu5Ac(a2-6)Gal(b1-4)GlcNAc(b1-2)Man(a1-3)[Neu5Ac(a2-6)Gal(b1-4)GlcNAc(b1-2)Man(a1-6)]Man(b1-4)GlcNAc(b1-4)GlcNAc
# How it was run: as §1
# [19] = biological target: Neu5Ac(a2-6)Gal(b1-4)GlcNAc(b1-2)Man(a1-3)[Neu5Ac(a2-6)Gal(b1-4)GlcNAc(b1-2)Man(a1-6)]Man(b1-4)GlcNAc(b1-4)[Fuc(a1-6)]GlcNAc
# How it was run: as §1
# [20] = biological target: Neu5Ac(a2-6)Gal(b1-4)GlcNAc(b1-2)Man(a1-6)Man(b1-4)GlcNAc(b1-4)GlcNAc
# How it was run: as §1
# [21] = biological target: Neu5Ac(a2-6)Gal(b1-4)GlcNAc(b1-2)Man(a1-6)[Gal(b1-4)GlcNAc(b1-2)Man(a1-3)]Man(b1-4)GlcNAc(b1-4)GlcNAc
# How it was run: as §1
# [22] = biological target: Neu5Ac(a2-6)Gal(b1-4)GlcNAc(b1-2)Man(a1-6)[GlcNAc(b1-2)Man(a1-3)]Man(b1-4)GlcNAc(b1-4)GlcNAc
# How it was run: as §1
# [23] = biological target: Neu5Ac(a2-6)Gal(b1-4)GlcNAc(b1-2)Man(a1-6)[Man(a1-3)]Man(b1-4)GlcNAc(b1-4)GlcNAc
# How it was run: as §1
# [24] = biological target: Neu5Ac(a2-6)Gal(b1-4)GlcNAc(b1-2)[Neu5Ac(a2-6)Gal(b1-4)GlcNAc(b1-4)]Man(a1-3)[GlcNAc(b1-4)][Neu5Ac(a2-6)Gal(b1-4)GlcNAc(b1-2)[Neu5Ac(a2-6)Gal(b1-4)GlcNAc(b1-6)]Man(a1-6)]Man(b1-4)GlcNAc(b1-4)GlcNAc
# How it was run: as §1
# [25] = biological target: Neu5Ac(a2-6)Gal(b1-4)GlcNAc(b1-2)[Neu5Ac(a2-6)Gal(b1-4)GlcNAc(b1-4)]Man(a1-3)[GlcNAc(b1-4)][Neu5Ac(a2-6)Gal(b1-4)GlcNAc(b1-4)Man(a1-6)]Man(b1-4)GlcNAc(b1-4)GlcNAc
# How it was run: as §1
# [26] = biological target: Neu5Ac(a2-6)Gal(b1-4)GlcNAc(b1-2)[Neu5Ac(a2-6)Gal(b1-4)GlcNAc(b1-6)]Man(a1-6)[Neu5Ac(a2-6)Gal(b1-4)GlcNAc(b1-2)Man(a1-3)][GlcNAc(b1-4)]Man(b1-4)GlcNAc(b1-4)GlcNAc
# How it was run: as §1
# [27] = biological target: Neu5Ac(a2-6)Gal(b1-4)GlcNAc(b1-3)Gal(b1-3)GlcNAc
# How it was run: as §1
# [28] = biological target: Neu5Ac(a2-6)Gal(b1-4)GlcNAc(b1-3)Gal(b1-4)GlcNAc
# How it was run: as §1
# [29] = biological target: Neu5Ac(a2-6)Gal(b1-4)GlcNAc(b1-3)Gal(b1-4)GlcNAc(b1-2)Man(a1-3)[Neu5Ac(a2-6)Gal(b1-4)GlcNAc(b1-3)Gal(b1-4)GlcNAc(b1-2)Man(a1-6)]GalNAc
# How it was run: as §1
# [30] = biological target: Neu5Ac(a2-6)Gal(b1-4)GlcNAc(b1-3)Gal(b1-4)GlcNAc(b1-3)Gal(b1-4)GlcNAc
# How it was run: as §1
# [31] = biological target: Neu5Ac(a2-6)Gal(b1-4)GlcNAc(b1-3)Gal(b1-4)GlcNAc(b1-3)Gal(b1-4)GlcNAc(b1-2)Man(a1-3)[Neu5Ac(a2-6)Gal(b1-4)GlcNAc(b1-3)Gal(b1-4)GlcNAc(b1-3)Gal(b1-4)GlcNAc(b1-2)Man(a1-6)]GalNAc
# How it was run: as §1
# [32] = biological target: Neu5Ac(a2-6)Gal(b1-4)GlcNAc(b1-3)Gal(b1-4)GlcNAc(b1-3)GalNAc
# How it was run: as §1
# [33] = biological target: Neu5Ac(a2-6)Gal(b1-4)GlcNAc(b1-3)Gal(b1-4)GlcNAc(b1-3)[Neu5Ac(a2-6)Gal(b1-4)GlcNAc(b1-3)Gal(b1-4)GlcNAc(b1-6)]GalNAc
# How it was run: as §1
# [34] = biological target: Neu5Ac(a2-6)Gal(b1-4)GlcNAc(b1-3)Gal(b1-4)GlcNAc(b1-6)[Gal(b1-3)]GalNAc
# How it was run: as §1
# [35] = biological target: Neu5Ac(a2-6)Gal(b1-4)GlcNAc(b1-3)Gal(b1-4)[Fuc(a1-3)]GlcNAc(b1-3)Gal(b1-4)[Fuc(a1-3)]GlcNAc
# How it was run: as §1
# [36] = biological target: Neu5Ac(a2-6)Gal(b1-4)GlcNAc(b1-3)GalNAc
# How it was run: as §1
# [37] = biological target: Neu5Ac(a2-6)Gal(b1-4)GlcNAc(b1-3)[Neu5Ac(a2-6)Gal(b1-4)GlcNAc(b1-6)]GalNAc
# How it was run: as §1
# [38] = biological target: Neu5Ac(a2-6)Gal(b1-4)GlcNAc(b1-6)GalNAc
# How it was run: as §1
# [39] = biological target: Neu5Ac(a2-6)Gal(b1-4)GlcNAc(b1-6)[Gal(b1-3)GlcNAc(b1-3)]Gal(b1-4)Glc
# How it was run: as §1
# [40] = biological target: Neu5Ac(a2-6)Gal(b1-4)GlcNAc(b1-6)[Gal(b1-3)]GalNAc
# How it was run: as §1
# [41] = biological target: Neu5Ac(a2-6)Gal(b1-4)GlcNAc6S
# How it was run: as §1
# Neu5Ac(a2-6)GalNAc = biological target: Neu5Ac(a2-6)GalNAc
# How it was run: as §1
binder,measurement,setting,value
B1,glycan array binding signal (z-score),[1],-0.338
same,glycan array binding signal (z-score),[2],-0.343
same,glycan array binding signal (z-score),[3],-0.349
same,glycan array binding signal (z-score),Neu5Ac(a2-3)GalNAc,1.68
same,glycan array binding signal (z-score),[4],-0.344
same,glycan array binding signal (z-score),[5],-0.354
same,glycan array binding signal (z-score),[6],-0.387
same,glycan array binding signal (z-score),[7],-0.271
same,glycan array binding signal (z-score),[8],-0.32
same,glycan array binding signal (z-score),Neu5Ac(a2-6)Gal,-0.339
same,glycan array binding signal (z-score),[9],-0.336
same,glycan array binding signal (z-score),Neu5Ac(a2-6)Gal(b1-4)Glc,-0.338
same,glycan array binding signal (z-score),[10],-0.339
same,glycan array binding signal (z-score),[11],-0.339
same,glycan array binding signal (z-score),[12],-0.341
same,glycan array binding signal (z-score),[13],-0.331
same,glycan array binding signal (z-score),[14],1.11
same,glycan array binding signal (z-score),[15],-0.331
same,glycan array binding signal (z-score),[16],-0.341
same,glycan array binding signal (z-score),[17],-0.339
same,glycan array binding signal (z-score),[18],-0.379
same,glycan array binding signal (z-score),[19],-0.331
same,glycan array binding signal (z-score),[20],-0.343
same,glycan array binding signal (z-score),[21],-0.346
same,glycan array binding signal (z-score),[22],2.13
same,glycan array binding signal (z-score),[23],-0.33
same,glycan array binding signal (z-score),[24],-0.327
same,glycan array binding signal (z-score),[25],-0.326
same,glycan array binding signal (z-score),[26],-0.323
same,glycan array binding signal (z-score),[27],-0.318
same,glycan array binding signal (z-score),[28],-0.349
same,glycan array binding signal (z-score),[29],-0.334
same,glycan array binding signal (z-score),[30],-0.321
same,glycan array binding signal (z-score),[31],-0.246
same,glycan array binding signal (z-score),[32],0.414
same,glycan array binding signal (z-score),[33],-0.281
same,glycan array binding signal (z-score),[34],0.789
same,glycan array binding signal (z-score),[35],-0.339
same,glycan array binding signal (z-score),[36],-0.07
same,glycan array binding signal (z-score),[37],-0.297
same,glycan array binding signal (z-score),[38],-0.327
same,glycan array binding signal (z-score),[39],-0.344
same,glycan array binding signal (z-score),[40],1.07
same,glycan array binding signal (z-score),[41],-0.342
same,glycan array binding signal (z-score),Neu5Ac(a2-6)GalNAc,-0.351
